According to patent US10023601B2, “Hydrolysis resistant sialic acid derivatives and methods for their use” (The University of British Columbia, priority 2014, dated 2018):
Counter-ions that a name gives are not always drawn.

Assays:
Cst-I [1] = target: T1, Cst-I (Campylobacter jejuni, UniProt Q9RGF1); assay type: biochemical, C. jejuni
Cst-I [2] = target: T1, Cst-I
Pm0188h = target: T2, Pm0188h (Pasteurella multocida, UniProt Q15KI8); assay: Sialyltransferase kinetics, CMP release assay, transfer to lactose by Pm0188h; settings: for kcat: donor substrate, transfer to lactose, 37° C., pH 8.5
T2 sequence (Q15KI8 26-412): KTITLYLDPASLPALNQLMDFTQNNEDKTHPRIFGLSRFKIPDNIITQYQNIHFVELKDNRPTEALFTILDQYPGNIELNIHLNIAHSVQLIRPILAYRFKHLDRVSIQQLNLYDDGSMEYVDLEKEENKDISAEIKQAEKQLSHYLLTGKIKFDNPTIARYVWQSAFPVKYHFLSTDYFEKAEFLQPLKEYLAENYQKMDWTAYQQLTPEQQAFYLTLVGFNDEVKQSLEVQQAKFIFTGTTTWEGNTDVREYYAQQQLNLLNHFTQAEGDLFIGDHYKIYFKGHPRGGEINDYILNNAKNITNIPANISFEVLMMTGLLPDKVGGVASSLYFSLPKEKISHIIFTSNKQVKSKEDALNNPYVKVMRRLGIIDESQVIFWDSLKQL

Pasteurella enzyme = Pasteurella enzyme (Pasteurella multocida, UniProt Q15KI8)

T1 sequence (Q9RGF1 1-285 limits assumed): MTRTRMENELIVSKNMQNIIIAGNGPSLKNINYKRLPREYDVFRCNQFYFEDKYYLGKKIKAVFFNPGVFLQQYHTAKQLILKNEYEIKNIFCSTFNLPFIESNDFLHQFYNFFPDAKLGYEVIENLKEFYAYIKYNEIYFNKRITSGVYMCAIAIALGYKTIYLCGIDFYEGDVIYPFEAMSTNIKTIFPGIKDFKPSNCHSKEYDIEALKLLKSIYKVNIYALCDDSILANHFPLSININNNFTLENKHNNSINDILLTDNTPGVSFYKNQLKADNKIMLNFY

CC(=O)N[C@H]1[C@H]([C@H](F)[C@H](O)CO)O[C@](OP(=O)(O)OC[C@H]2O[C@@H](n3ccc(N)nc3=O)[C@H](O)[C@@H]2O)(C(=O)O)C[C@@H]1O [compound 14, 5-Acetamido-3,5,7-trideoxy-2-(hydrogen 5′-cytidylate)-7-fluoro-D-glycero-b-D-galacto-2-nonulopyranosidic acid diammonium salt]
transfer of donor to BODIPY-lactose (TLC) (Cst-I [1]): complete transfer | enzymatic coupling to aryl β-galactosides (oNP, MU) (Cst-I [2]): worked well | kcat (Pm0188h): 99 s⁻¹

CC(=O)N[C@H]1[C@H]([C@H](O)[C@H](O)CO)O[C@](OP(=O)(O)OC[C@H]2O[C@@H](n3ccc(N)nc3=O)[C@H](O)[C@@H]2O)(C(=O)O)C[C@@H]1O [compound 16, CMP-NeuNAc, reference compound]
transfer of donor to BODIPY-lactose (TLC) (Cst-I [1]): complete transfer | enzymatic coupling to aryl β-galactosides (oNP, MU) (Cst-I [2]): worked well | kcat (Pm0188h): 182 s⁻¹

CC(=O)N[C@H]1[C@H](C(F)(F)[C@H](O)CO)O[C@](OP(=O)(O)OC[C@H]2O[C@@H](n3ccc(N)nc3=O)[C@H](O)[C@@H]2O)(C(=O)O)C[C@@H]1O [compound 15, 5-Acetamido-3,5,7-trideoxy-2-(hydrogen 5′-cytidylate)-7,7-difluoro-D-glycero-b-D-galacto-2-nonulopyranosidic acid diammonium salt]
completion of transfer to BODIPY-lactose (TLC) (Cst-I [1]): around 20% | enzymatic coupling to aryl β-galactosides (oNP, MU) (Cst-I [2]): no transfer products were observed | enzymatic coupling to aryl β-galactosides (oNP, MU) (Pasteurella enzyme): Nor were any products obtained | fold slower transfer than the natural donor (Pm0188h): ~20 fold | kcat (Pm0188h): 10.0 s⁻¹
